# Results taken from the supplement of paper PMC8728848.
# The list shows a part of the results.
# Columns and labels:
# Test in all cases: glycan array binding signal (z-score within array); higher = stronger binding
# Conditions in all cases: glycan notation: IUPAC condensed, linker removed
# Gal6S(b1-3)GlcNAc6S = molecular target: Gal6S(b1-3)GlcNAc6S
# In short: (§1)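 Glycan array binding is given as a within-array Z-score, which can be read as non-binding when negative. The arrays, 3228 of them, came from the Consortium for Functional Glycomics database and were retained only where the protein sequence was available. Z-scores were averaged across arrays of the same protein sequence at different concentrations or buffers and across linkers.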
# Gal6S(b1-4)Glc = molecular target: Gal6S(b1-4)Glc
# In short: as §1
# Gal6S(b1-4)Glc6S = molecular target: Gal6S(b1-4)Glc6S
# In short: as §1
# Gal6S(b1-4)GlcNAc = molecular target: Gal6S(b1-4)GlcNAc
# In short: as §1
# Gal6S(b1-4)GlcNAc6S = molecular target: Gal6S(b1-4)GlcNAc6S
# In short: as §1
# GalNAc(a1-3)Gal = molecular target: GalNAc(a1-3)Gal
# In short: as §1
# GalNAc(a1-3)GalNAc = molecular target: GalNAc(a1-3)GalNAc
# In short: as §1
# [1] = molecular target: GalNAc(a1-3)GalNAc(a1-3)Gal(a1-4)Gal(b1-4)GlcNAc
# In short: as §1
# [2] = molecular target: GalNAc(a1-3)GalNAc(b1-3)Gal(a1-4)Gal(b1-4)Glc
# In short: as §1
# GalNAc(b1-3)Gal = molecular target: GalNAc(b1-3)Gal
# In short: as §1
# [3] = molecular target: GalNAc(b1-3)Gal(a1-4)Gal(b1-4)GlcNAc
# In short: as §1
# [4] = molecular target: GalNAc(b1-3)Gal(a1-4)Gal(b1-4)GlcNAc(b1-3)Gal(b1-4)Glc
# In short: as §1
# [5] = molecular target: GalNAc(b1-3)Gal(a1-6)Gal(b1-4)Glc
# In short: as §1
# GalNAc(b1-3)GalNAc = molecular target: GalNAc(b1-3)GalNAc
# In short: as §1
# GalNAc(b1-3)GlcNAc = molecular target: GalNAc(b1-3)GlcNAc
# In short: as §1
# GalNAc(b1-4)Gal(b1-4)Glc = molecular target: GalNAc(b1-4)Gal(b1-4)Glc
# In short: as §1
# GalNAc(b1-4)GlcNAc = molecular target: GalNAc(b1-4)GlcNAc
# In short: as §1
# [6] = molecular target: GalNAc(b1-4)GlcNAc(b1-2)Man
# In short: as §1
# [7] = molecular target: GalNAc(b1-4)GlcNAc(b1-2)Man(a1-3)[GalNAc(b1-4)GlcNAc(b1-2)Man(a1-6)]Man(b1-4)GlcNAc(b1-4)GlcNAc
# In short: as §1
# [8] = molecular target: GalNAc(b1-4)GlcNAc(b1-3)GalNAc(b1-4)GlcNAc
# In short: as §1
# GalNAc(b1-4)GlcNAc6S = molecular target: GalNAc(b1-4)GlcNAc6S
# In short: as §1
# GalNAc(b1-6)GalNAc = molecular target: GalNAc(b1-6)GalNAc
# In short: as §1
# GalNAc3S(b1-4)GlcNAc = molecular target: GalNAc3S(b1-4)GlcNAc
# In short: as §1
# GalNAc3S(b1-4)GlcNAc3S = molecular target: GalNAc3S(b1-4)GlcNAc3S
# In short: as §1
# [9] = molecular target: GalNAc3S(b1-4)[Fuc(a1-3)]GlcNAc
# In short: as §1
# GalNAc4S6S(b1-4)GlcNAc = molecular target: GalNAc4S6S(b1-4)GlcNAc
# In short: as §1
# GalNAc6S(b1-4)GlcNAc = molecular target: GalNAc6S(b1-4)GlcNAc
# In short: as §1
# Glc(a1-4)Glc = molecular target: Glc(a1-4)Glc
# In short: as §1
# [10] = molecular target: Glc(a1-4)Glc(a1-4)Glc(a1-4)Glc
# In short: as §1
# Glc(a1-6)Glc(a1-6)Glc = molecular target: Glc(a1-6)Glc(a1-6)Glc
# In short: as §1
# [11] = molecular target: Glc(a1-6)Glc(a1-6)Glc(a1-6)Glc
# In short: as §1
# Glc(b1-4)Glc = molecular target: Glc(b1-4)Glc
# In short: as §1
# Glc(b1-6)Glc = molecular target: Glc(b1-6)Glc
# In short: as §1
# GlcA(b1-3)Gal = molecular target: GlcA(b1-3)Gal
# In short: as §1
# GlcA(b1-3)GlcNAc = molecular target: GlcA(b1-3)GlcNAc
# In short: as §1
# GlcA(b1-6)Gal = molecular target: GlcA(b1-6)Gal
# In short: as §1
# [12] = molecular target: GlcA3S(b1-3)Gal(b1-4)GlcNAc(b1-2)Man
# In short: as §1
# [13] = molecular target: GlcA3S(b1-3)Gal(b1-4)GlcNAc(b1-3)Gal(b1-4)Glc
# In short: as §1
binder,measurement,setting,value
Gal 8 (Homo sapiens) (protein) MLSLNNLQNIIYNPVIPYVGTIPDQLDPGTLIVICGHVPSDADRFQVDLQNGSSVKPRADVAFHFNPRFKRAGCIVCNTLINEKWGREEITYDTPFKREKSFEIVIMVLKDKFQVAVNGKHTLLYGHRIGPEKIDTLGIYGKVNIHSIGFSFSSDLQSTQASSLELTEISRENVPKSGTPQLQTVSPSWDLQGHGSETFCSVLWTRVFLEIAFCRPIGLTVASFQSLPFAARLNTPMGPGRTVVVKGEVNANAKSFNVDLLAGKSKDIALHLNPRLNIKAFVRNSFLQESWGEEERNITSFPFSPGMYFEMIIYCDVREFKVAVNGVHSLEYKHRFKELSSIDTLEINGDIHLLEVRSW,glycan array binding signal (z-score),Gal6S(b1-3)GlcNAc6S,-0.357
same,glycan array binding signal (z-score),Gal6S(b1-4)Glc,-0.375
same,glycan array binding signal (z-score),Gal6S(b1-4)Glc6S,-0.306
same,glycan array binding signal (z-score),Gal6S(b1-4)GlcNAc,-0.343
same,glycan array binding signal (z-score),Gal6S(b1-4)GlcNAc6S,-0.317
same,glycan array binding signal (z-score),GalNAc(a1-3)Gal,-0.325
same,glycan array binding signal (z-score),GalNAc(a1-3)GalNAc,-0.315
same,glycan array binding signal (z-score),[1],0.07
same,glycan array binding signal (z-score),[2],0.169
same,glycan array binding signal (z-score),GalNAc(b1-3)Gal,-0.28
same,glycan array binding signal (z-score),[3],-0.247
same,glycan array binding signal (z-score),[4],1.49
same,glycan array binding signal (z-score),[5],-0.356
same,glycan array binding signal (z-score),GalNAc(b1-3)GalNAc,-0.396
same,glycan array binding signal (z-score),GalNAc(b1-3)GlcNAc,-0.35
same,glycan array binding signal (z-score),GalNAc(b1-4)Gal(b1-4)Glc,-0.356
same,glycan array binding signal (z-score),GalNAc(b1-4)GlcNAc,-0.317
same,glycan array binding signal (z-score),[6],-0.354
same,glycan array binding signal (z-score),[7],-0.353
same,glycan array binding signal (z-score),[8],-0.28
same,glycan array binding signal (z-score),GalNAc(b1-4)GlcNAc6S,-0.352
same,glycan array binding signal (z-score),GalNAc(b1-6)GalNAc,-0.356
same,glycan array binding signal (z-score),GalNAc3S(b1-4)GlcNAc,-0.307
same,glycan array binding signal (z-score),GalNAc3S(b1-4)GlcNAc3S,-0.353
same,glycan array binding signal (z-score),[9],-0.356
same,glycan array binding signal (z-score),GalNAc4S6S(b1-4)GlcNAc,-0.357
same,glycan array binding signal (z-score),GalNAc6S(b1-4)GlcNAc,-0.358
same,glycan array binding signal (z-score),Glc(a1-4)Glc,-0.387
same,glycan array binding signal (z-score),[10],-0.354
same,glycan array binding signal (z-score),Glc(a1-6)Glc(a1-6)Glc,-0.198
same,glycan array binding signal (z-score),[11],-0.352
same,glycan array binding signal (z-score),Glc(b1-4)Glc,0.514
same,glycan array binding signal (z-score),Glc(b1-6)Glc,0.098
same,glycan array binding signal (z-score),GlcA(b1-3)Gal,-0.36
same,glycan array binding signal (z-score),GlcA(b1-3)GlcNAc,1.06
same,glycan array binding signal (z-score),GlcA(b1-6)Gal,-0.303
same,glycan array binding signal (z-score),[12],-0.358
same,glycan array binding signal (z-score),[13],-0.298
